“And” between values parts separate entries of the source, which are not always exact repeats. Equal entries are not always repeated. The name of at least one read-out is uncertain.
Assay: Promotion of excretion of ^238 Pu(IV) in mice
Format: in vivo
Conditions: killed 24 hr after Pu; for ^238 Pu Excreta, Feces and GI contents / ^238 Pu Excreta, Urine / ^238 Pu in Kidneys: pooled; for ^238 Pu in Liver / ^238 Pu in Residual soft tissue / ^238 Pu in Skeleton: ± S.D.
Experimental: The novel chelating agents of the present invention were tested for their effectiveness in promoting excretion of ^238 Pu(IV) in mice as follows. Groups of five mice each received an intravenous injection of […] of ^238 Pu(IV) in citrate buffer, 9250 Bq/kg body wt. One hour later 30 μmole/kg of ligand (120 μmole/kg of monomeric ligands) was injected intraperitoneally in 0.5 ml of saline. The mice were killed 24 h after the Pu injection, frozen, and dissected after partial thawing. The ^238 Pu in skeleton, tissues, and separated excreta was determined by counting of the ^234 U L xrays.
^c Ligand was administered (30 μmole/kg, i.p.) at 1 hr and mice
were killed at 24 hr after injection (i.v.) of ^238 Pu(IV) citrate.
Dosage of monomers, HOPO--CO2 H and HOPO--COMe2, was 120

[1] = ligand 30 μmole/kg i.p. at 1 hr
[2] = monomer 120 μmole/kg i.p. at 1 hr

Row | Compound | ^238 Pu Body content [1] | ^238 Pu Excreta, Feces and GI contents [1] | ^238 Pu Excreta, Urine [1] | ^238 Pu in Kidneys [1] | ^238 Pu in Liver [1] | ^238 Pu in Residual soft tissue [1] | ^238 Pu in Skeleton [1] | ^238 Pu Body content [2] | ^238 Pu Excreta, Feces and GI contents [2] | ^238 Pu Excreta, Urine [2] | ^238 Pu in Kidneys [2] | ^238 Pu in Liver [2] | ^238 Pu in Residual soft tissue [2] | ^238 Pu in Skeleton [2]
1 | O=C(NCCCN(CCCCN(CCCNC(=O)c1cccc(=O)n1O)C(=O)c1cccc(=O)n1O)C(=O)c1cccc(=O)n1O)c1cccc(=O)n1O [3,4,3-HOPOCAM] | 19% of injected ^238 Pu | 57% of injected ^238 Pu | 24. Percent of injected ^238 Pu and 24% of injected ^238 Pu | 0.2% of injected ^238 Pu | 8.9 ± 1.7% of injected ^238 Pu | 1.6 ± 0.6% of injected ^238 Pu | 7.5 ± 0.7% of injected ^238 Pu | – | – | – | – | – | – | –
2 | O=C(NCCCCN(CCCNC(=O)c1cccc(=O)n1O)C(=O)c1cccc(=O)n1O)c1cccc(=O)n1O [3,4-HOPOCAM] | 36% of injected ^238 Pu | 56% of injected ^238 Pu | 7.5% of injected ^238 Pu | 0.6% of injected ^238 Pu | 17. ± 4.6% of injected ^238 Pu | 5.6 ± 1.2% of injected ^238 Pu | 9.5 ± 3.5% of injected ^238 Pu | – | – | – | – | – | – | –
3 | O=C(NCCCNC(=O)c1cccc(=O)n1O)c1cccc(=O)n1O [3-HOPOCAM] | 38% of injected ^238 Pu | 53% of injected ^238 Pu | 8.7% of injected ^238 Pu | 1.4% of injected ^238 Pu | 8.7 ± 1.2% of injected ^238 Pu | 11. ± 0.8% of injected ^238 Pu | 17. ± 2.8% of injected ^238 Pu | – | – | – | – | – | – | –
4 | O=C(O)CN(CCN(CC(=O)O)CC(=O)O)CCN(CC(=O)O)CC(=O)O [CaNa3 --DTPA, reference compound] | 30% of injected ^238 Pu | – | – | 0.4% of injected ^238 Pu | 16 ± 2.8% of injected ^238 Pu | 3.8 ± 1.5% of injected ^238 Pu | 11 ± 1.2% of injected ^238 Pu | – | – | – | – | – | – | –
5 | CC(=O)N(O)CCCCCNC(=O)CCC(=O)N(O)CCCCCNC(=O)CCC(=O)N(O)CCCCCNC(=O)c1cccc(=O)n1O [DFHOPOCAM] | 14% of injected ^238 Pu | 46% of injected ^238 Pu | 40% of injected ^238 Pu | 0.3% of injected ^238 Pu | 4.6 ± 1.2% of injected ^238 Pu | 1.7 ± 0.3% of injected ^238 Pu | 7.4 ± 0.8% of injected ^238 Pu | – | – | – | – | – | – | –
6 | CC(=O)N(O)CCCCCNC(=O)CCC(=O)N(O)CCCCCNC(=O)CCC(=O)N(O)CCCCCN [Desferrioxamine, reference compound] | 46% of injected ^238 Pu | 15% of injected ^238 Pu | 40% of injected ^238 Pu | 1.8% of injected ^238 Pu | 19 ± 13% of injected ^238 Pu | 4.5 ± 1.4% of injected ^238 Pu | 20 ± 11% of injected ^238 Pu | – | – | – | – | – | – | –
7 | O=C(O)c1cccc(=O)n1O [HOPO--CO2 H, 1-hydroxy-2(1H)-pyridinone-6-carboxylic acid] | – | – | – | – | – | – | – | 83% of injected ^238 Pu | 9.6% of injected ^238 Pu | 7.0% of injected ^238 Pu | 1.2% of injected ^238 Pu | 52. ± 4.6% of injected ^238 Pu | 6.3 ± 1.6% of injected ^238 Pu | 24. ± 5.1% of injected ^238 Pu
8 | CN(C)C(=O)c1cccc(=O)n1O [HOPO--COMe2, N,N'-dimethyl-1-hydroxy-2(1H)-pyridinone-6-carboxamide] | – | – | – | – | – | – | – | 87% of injected ^238 Pu | 8.6% of injected ^238 Pu | 4.5% of injected ^238 Pu | 1.4% of injected ^238 Pu | 56. ± 6.3% of injected ^238 Pu | 5.9 ± 1.2% of injected ^238 Pu | 27. ± 5.5% of injected ^238 Pu
9 | O=C(NCc1cc(CNC(=O)c2cccc(=O)n2O)cc(CNC(=O)c2cccc(=O)n2O)c1)c1cccc(=O)n1O [HOPO--MECAM] | 46% of injected ^238 Pu | 44% of injected ^238 Pu | 9.6% of injected ^238 Pu | 1.8% of injected ^238 Pu | 18. ± 6.3% of injected ^238 Pu | 10. ± 1.8% of injected ^238 Pu | 17. ± 2.5% of injected ^238 Pu | – | – | – | – | – | – | –

From patent publication US4698431A, “Hydroxypyridonate chelating agents” (priority 1985, dated 1987)
